Values marked as one replicate rest on one cluster of the flow cell; about a third of the high ones do not repeat.
Test system: ATP
Test: switch fluorescence ratio, 500 uM ATP over buffer (Cy3 cluster intensity, sum of 5 cycles each) (fold (ratio)); higher = stronger signal-on switching upon ATP binding; sequences stand for … in TCGTCGGCAGCGTCAGATGTGTATAAGAGACAGTTTTTTTTTTTTTTTTTTTTTTTTT…TC
Conditions: aptamer strand: ATP DNA aptamer (quencher-CACCTGGGGGAGTATTGCGGAGGAAGG + anchor), 100 nM annealed; ATP concentration: 500 uM; one replicate
Procedure, shortened: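 Exposure to 500 uM ATP lasted 15 min at 22 °C before imaging, and a selection-buffer image was taken beforehand, for Cy3-labelled switching-strand clusters on a modified Illumina MiSeq flow-cell annealed to 100 nM quencher-labelled ATP aptamer. Five buffer/ATP cycles were run with NaOH stripping and re-annealing between them. The fluorescence ratio per cluster is summed target-cycle over summed buffer-cycle Cy3 intensity, averaged per switch-domain sequence. Clusters outside 100-1000 RFU were excluded.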

Sequence	switch fluorescence ratio
TCCGGCAGAT	1.3
TGTAGGCCT	0.973
AGCCAGGGC	1.03
TCGGGTACA	0.98
CTTCACAAT	1.86
CCTGTAGCGG	1.34
GTTGCATGAG	1.04
CAGAATCTCA	1
GGCCCTATAA	0.927
TTCCATAGT	0.997
TAAGAGGAAT	0.967
CGGTGAGCCT	0.997
AAAGGTCACA	1.04
GTTAGTAGAA	0.958
TCGTGGTATT	1
CGTGGAGGTT	0.982
GCTGACATGA	0.948
TACTGTATAT	1.21
GGGGTACACA	1.05
CGGATAATCT	1
AGAAACGAGA	0.931
TGCTTCAGAG	1.05
GAGTGAATC	1.01
GCTCTACTTA	1.03
GTATGTATG	1.02
TGTCGGCCCT	1.03

Sequence	switch fluorescence ratio
ACGGCAGGTG	6.27
GGTTCATATC	0.979
CTCAAAGGAC	1.83
CCAAAGCAAA	5.12
TAGGAAGAAG	0.999
CCCAGGCACG	1.05
AGTGGTCGGG	1.01
GGGACTTTGC	1.02
ACGCACGACT	1.58
CATCTTTAAT	1.02
GACATAGCCA	1.1
TAGGGCTTGT	0.977
TCGATAAGGT	1.01
AGCGCGCTCC	1.01
ATCTAGTACT	1.03
TCATCCATTG	0.999
CTATTCGCGC	1.18
AGTTACTAGC	1.02
CATTAGGCTA	1.02
TAATTCAACG	0.989
AGTGCCGCCA	1
GTATGTTTCC	1.11
GGTTTCTGTA	0.985
GTTGATCGCG	0.99
AAGTTAACTG	1.06
AATTCGGACT	1.27

Sequence	switch fluorescence ratio
CAAGCGCCCA	1.02
CTGAATGTTG	1.02
GCGTTACTTG	1.18
AAATACTTCG	1.07
TGACCCGACC	1.33
TGTCCCTTGG	1.02
ACAAATACCA	1.01
AGCGGTAAAC	1.05
GGCCTAAGGA	1.02
ATTCCGTTT	1.04
ACCGGAGCCC	2.44
ACGACAAAT	1.19
AATAAGCATG	1.03
TTCGGGACAA	0.984
CGGCGGGGAT	1.01
GCGGGACGAA	1
ATTTAGGAAC	0.988
GATTACTATT	1.01
TACTCATC	1.08
AACAAGAGCC	1.03
TCTATGGAA	1.03
GGGGTCTTGT	0.994
CGCTTTACCT	1.27
TGAACCTTGG	1.02
GCATCGGACC	1.12
GGTACTATCA	1.03

Sequence	switch fluorescence ratio
GCGGGCCCAG	1.02
GTCGGTTCAC	0.957
TCTTGTCAAC	1.03
ACGAACTTA	1.31
TAACGAGGCT	0.998
TACATACTTG	1.2
ACAGATATAT	1.02
TGCATGGGGA	1.17
GCGCGAATTC	1.2
ACTGAATGCG	1.04
TCCACTTCTC	1.09
GTTATATTGC	1.06
TTAACAAATT	0.982
GGCTGTGAGG	0.94
GTGGCAGCCA	1
GACGACAGGG	1.14
CGAGGTTTGC	1.01
TCGCCGTTGT	1.04
TTTCGTTCTA	0.96
ATAAATTGAC	1.01
AGGTGATCCG	0.916
CGAGCGCCGA	1.1
TGCACGGGGA	1.06
GAATTTGCCG	0.971
TCGCTTCTTT	1.11
ACCAGACTGT	1.08

Sequence	switch fluorescence ratio
TGTGAAATGA	0.968
GCGAGTTACG	0.993
CAGAGGGTCA	0.962
TATAAGAGTA	0.999
TCCAGTACAC	1.09
TTTGTATAT	1.04
TTATTAATTC	0.975
ATCAAGGTAA	0.972
AGTGTGGGG	1.05
GACTTAGGGT	1.02
CTTAATGG	0.971
TCACGGGGAC	1.11
AAGCCCTTAA	1
GTTAGAGCTA	1.03
TAAGATTCGC	0.923
AACGCCGATT	0.968
CGCATAAAAA	1.06
CCTACTCGGA	1.04
CGGACGCTGT	1.27
ACTAATCCAA	1.06
TATCCATAAG	1.02
GCAAGTTAAG	1.02
AATTGATAGA	1
CGTTGTGT	0.988
AAGCTTCCGT	1.02
GCTAAAAAAC	1.02

Sequence	switch fluorescence ratio
GACCCGGTTT	0.984
CGGGGAAGAA	0.994
CACAAAGGG	0.991
TCGTTTCAAA	0.993
ATCTTCCCTG	1.22
CCTAAGATGG	1.08
GACACGCATA	2.15
TAAGCAAAAA	1.09
TGTTGCATGG	0.999
ATTCCAAAGC	1.64
ACTGGTTTGA	0.985
GGCATTCGTC	0.969
CTAAGAGCGG	0.974
ACGTGCGACT	1.02
ACATTGATCT	1.04
CCTAGAGATA	1.01
ATTGTAGTAC	1.05
CTCATCATTA	1.06
ACAGCTAGGT	1.07
CGATCACGCA	1.1
CAGCAATAGA	2.08
TCTATAAAAG	0.991
CCGACCCCGA	2.28
AGAGCAAAGG	1.08
GCCTTTCCAA	1.08
GCGCCTGTAG	1.04

Sequence	switch fluorescence ratio
GAACACTGCC	1.2
CTGTTCTTGT	0.974
AGAGGGGATC	1.03
GAGAGACAT	1.01
TCACAGGGAG	1.02
GGATCATAAG	0.959
TTAACTAGCT	1.02
GACATCTTGT	1.02
TTAATGCGAT	1.03
TATGTCGTGG	1
ATGTGGGAAG	0.961
CACTAGGACG	1.1
CAATGACCCA	0.996
ATCGGCCTTT	0.993
TTGTGCCCTG	1.03
GAATGCTACA	1.02
GTACGCCTTA	1.06
CGCAGATGGA	1.01
ACGCATACCG	1.17
TTACTGGAAA	1.02
TTTTTGACAA	0.992
GAGCTACGTG	1.04
TCGGGCCACT	1.02
GGGCGTGGCG	0.966
AGTGCAATGT	1.16
GACTTCTAAT	0.999

Sequence	switch fluorescence ratio
TACTTCTGCC	0.996
GGTATTCGTC	0.977
ACGACGCGTG	1.08
CAGTTACCTA	1.07
CCAATTGATC	1.01
CATGTTGTGG	0.986
TTTCGAAGTA	0.977
CGACGCGCGC	2.25
TGGCACTTAA	1.02
TCATAACCCG	1.08
GCTATACTCG	5.15
TGGATTGAAT	0.999
TTTGCTTGC	1
GGCATTCAAC	1.04
CATCTTTCTT	1
GTGCATGGGT	1.02
TGAAATCCTA	0.987
TTAGTAAACG	0.956
GGTATTCATA	1

— the supplement of paper PMC10126150
